Reference: the supplement of paper PMC11417369
This is one part of the list.

System: PfHDP1 homeodomain (GST-tagged)
Test: gcPBM binding intensity (ln(normalized median fluorescence intensity)); higher = stronger DNA binding
Method in brief: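 An Agilent 4 × 180k array carrying primer-extended double-stranded 36-bp intergenic genomic probes and negative controls received GST-tagged P. falciparum DNA-binding domains expressed in E. coli, about 25 μg on average, for 1 h. The binding buffer contained 1× PBS, 1% milk, 0.2 mg/ml BSA, 0.5% salmon testes DNA and 0.03% Triton X-100. Binding intensity is the top Masliner-normalised natural-log median intensity across replicate spots of either probe orientation, read after Alexa488 anti-GST antibody staining and a 488 nm scan.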

Sequence | gcPBM binding intensity (ln)
TGTACGAGTCGTAGAGTGCAGTCTGGAGAAAAGTAC [GTGCAC_site9683] | 7.5
TATATATATATATATACACACTTGTGCAGAATATTA [CACACA_site5257] | 9.57
AAAAAAAAAATAAAATAAAATATATTATATATATTA [GTGCAC_negctrl_site431] | 5.91
GAATAAATAATTAACACACACAATCTTTTTTTTTTT [CACACA_site3140] | 6.35
TATATATATATATATGTACACACATCAATCATATTA [CACACA_site8594] | 9.43
TCACTTTTTATTAAATGTACATGCTTTCATTTTCAT [XGTACX_site8139] | 6.78
TATTTTTTTTTTTTTTGTACACATAATTGTAATCGT [XGTACX_site8415] | 6.55
CCACAGGATTGGTTCAAACACACATATTATATGACT [CACACA_site661] | 6.55
CATATAAAAATGTGCACACACACACCGATATATATT [CACACA_site4940] | 10.8
ATATATAAATATATATGTACATAAATATATATCTTT [XGTACX_site6910] | 6.47
AAGAAAAAAAAAAAAACACACATATATATATATATA [CACACA_site2027] | 9.21
TATAAATAGAGGAAGCGTACATATATATATATATAT [XGTACX_site4993] | 9.4
TGTATACCTTAATATACACACATACCTATATTTATA [CACACA_site6746] | 6.43
GGATATTAATAAATATGTACATATGTAGATTTATTA [XGTACX_site554] | 6.51
ATAAGGTTACAACAAACACACAAAGGAATATACACA [CACACA_site7840] | 6.97
AAAATTTTTTGAAATAGTACTTTTTTATATATATAT [XGTACX_site2634] | 8.37
TTTTTCTTATTTGGATTGCACTACATATATATATAT | 9.21
GAACTCATTACAAAGTGTACAAATTAAATAAATGGT [XGTACX_site3995] | 6.69
AGGTGCTTAATATATACACACATACAGATATATATA [CACACA_site5552] | 7.19
TATAAATTTATATATGCATGTCAGAAAAAAAAGTAA [TGCATGCA_site414] | 7.17
CAACAAAATAAACACACACACACAAACACAAAAAAA [CACACA_site5806] | 6.82
TATAAATGTGTATGCGCATGTAAAAATATAATTTAT [TGCATGCA_site750] | 7.86
GTAAATAATAAACACCGTACATGGTATAATTCAATG [XGTACX_site3655] | 6.25

Sequence | gcPBM binding intensity (ln)
AAATAAATAAATAGACGTACAAAAATATTATACATT [XGTACX_site6776] | 5.96
GATATGATGTGTTTGGTAGTTTTTGATGTTGGCATG [GTGCAC_negctrl_site506] | 6.61
AATAATGAAAAAATGAATAAAATTACTATATAATTC [XGTACX_negctrl_site457] | 6.02
AACGATATATGTACTACACACATTATGTCATCCTAT [CACACA_site2464] | 6.54
CAAAAAGGAATGTATGCACACAATTGATTTTAACTC [CACACA_site1468] | 9.32
ATATATATATTATATAGTACAGAGTATACTATTATA [XGTACX_site1893] | 7.85
ACAAAAGGGGAATACACACACATATATATATATATA [CACACA_site2215] | 9.37
GATCTAAAAACAAGGTGTACAAGAAAAAAAAAAAAA [XGTACX_site7577] | 6.27
TATTTATTTATTTAATGTACAAAAGAACAAGAATTT [XGTACX_site2248] | 6.16
TATGTATATACATAAACATGCAAAAACAATATCTTA [TGCATGCA_site950] | 6.55
TTCTTCTGTTTTATTACACACCATTTTGTGTATACA [CACACA_site7059] | 7.39
TCTTAATCGTATTATTACTATAATTATATAATATTT [CACACA_negctrl_site1594] | 6.68
GGAAAAATATAATATGCATGTTATTATTTTTTTATA [TGCATGCA_site836] | 6.21
ATATATATATAATGTTGTACATAAATATTATATTTA [XGTACX_site5225] | 8.51
TTTTTATTTATTCTCTTTGTATTATAAAATAAAAGC [XGTACX_negctrl_site253] | 6.39
ACATGTGAATTTTAGGTGCACTTGTAATTTAACATT | 9.6
TTTTTTTTCAATGGCACACATTTTAGATTTATGCTT [CACACA_site4735] | 6.35
TTCTTTTATGATAATTGTACCCTTTTTAAAAAGAAA [XGTACX_site7815] | 6.68
ATAATGAAAAGAAAGGGTACAAAAAAAAAAAAAAAT [XGTACX_site3350] | 6.54
AACTGATTATTTTTTTGTACATATATAATAATATAT [XGTACX_site5953] | 6.71
CATAAATAATATATTTGTACGAATAAAATTTGTTCA [XGTACX_site3445] | 6.22
TAAAACAATATAAAATGTACAGAATTTTTTTTTCTT [XGTACX_site6820] | 6.07
CAATGAAAAATAATGAGTACATAGTTAATAAAGATA [XGTACX_site72] | 6.6

Sequence | gcPBM binding intensity (ln)
TTTAAAGTTTTATACACACACCAAAGTTATTCTAAT [CACACA_site6432] | 6.52
ATAATTAAAATTAAATGTACTTTTTTATATATTTTT [XGTACX_site2209] | 6.21
AATTTCTTTTTCGATATACACACTGTATGTGTCTAA [CACACA_site3975] | 6.72
TATATACATATATGCACACAAAAAAATATATATTTT [CACACA_site1729] | 10.1
ATATGGATTATACATACATGCATACATACATACATA [TGCATGCA_site475] | 6.58
AATGATACACATATATGTACATATATATATATATAT [XGTACX_site5391] | 9.33
TGCAATATATCAAAGTGTACATGCAATAAAAAAAAA [XGTACX_site652] | 7.07
AAAATTTAATATAATGCACACATAAAACAAAAACAA [CACACA_site8071] | 9.14
AAATGTAGAAAAAGTTGTACACTGTTTCAAAAATAA [XGTACX_site1063] | 6.47
TATAATATAAAAATGAGTACATAGATAATAATATTT [XGTACX_site2376] | 6.56
TTTTTTTTTTATTAATGTACAAGATATATAATGTTA [XGTACX_site4809] | 6.16
ATATTTTATTATATAGGTACACATAATTTCATGTAA [XGTACX_site415] | 6.34
ATCTTAATTTTTGAAGGTACACACTAATATATTAAA [XGTACX_site2292] | 6.57
TATATAGTAAATATTTGTACATAATAAAATATATGT [XGTACX_site7873] | 6.25
TTTTGTACATCTTTTGCACACGTAATGTTATTATAA [CACACA_site1259] | 10.6
AATAAATAAAAATGCACACAGTTAACATGTTGAATT [CACACA_site4795] | 9.82
AAAAAACAATTTGTGTGTACACATGATACGTTCGAT [XGTACX_site4112] | 7.16
AAGAAGTGGAAAATATACTCCACATATATATATGTG [CACACA_negctrl_site304] | 7.72
ATATATATTTTTAATTGTACAGAATTAAAAATATTG [XGTACX_site1967] | 6.27
AAAAAAAAAAAAAGCTGTACAATTAAAGACAAACCT [XGTACX_site8610] | 6.52
CTTTAACCATATATGTGTACGTATTTTATTCATATT [XGTACX_site6212] | 7.21
TTATAATATATATAAAAGAAAAAAAATTATAATATA [CACACA_negctrl_site90] | 6.53
TTATTTTTCTTTATTGGTACACACGAAAAAAAAATT [XGTACX_site6482] | 6.43

Sequence | gcPBM binding intensity (ln)
TTTTTTACAGAAAAATATTAAAATTATAAATGTGAA [GTGCAC_negctrl_site451] | 6.38
GCCCACACGAACCATGCATGCCACGATATAAACCAC [TGCATGCA_site322] | 7.15
TAATATATATATATGGTGCATTTAATTTATATATAA | 10.2
TATGAAATTTTAATTACACACAGGAAAATAAAATGT [CACACA_site8430] | 6.46
TATTAATATATAGTAGTGCAATAAAGATATACTGAA | 9.67
AACATACTCACGAACATACACACGGACATACATACG [CACACA_site603] | 6.98
AATAAATAAATATATTGTACATATATATATATATAT [XGTACX_site8627] | 9.32
CGAAAGGAAATATAACGTACATAAGATTATATTCAC [XGTACX_site3868] | 6.47
ATGCATACACTTATATGTACACATTTACATATTATT [XGTACX_site2841] | 6.93
TATTAAAAGAAAAAAAAAAAAAAATTAATACATATA [XGTACX_negctrl_site582] | 5.8
ATGAACAAGGGGCACACACACATTATGACTAATTTA [CACACA_site3204] | 6.74
ATATGCTATTAATTATGTACATATATATATATATAT [XGTACX_site4901] | 9.29
GTACATTATATATATACACACATACATAATAAAGAA [CACACA_site5528] | 6.94
ACTACGTGTCAAAAATATTAATTACAAATGAATAAA [GTGCAC_negctrl_site248] | 6.08
GGACTATACAGTTATACACACACATATATATATAAT [CACACA_site7991] | 6.99
TTTAGTGAGTTTGTTGTGCACTGAAAAAATTACAAT | 10.4
TAATATTTTAATTGTGTGCACATTAATATTATAAAA | 10.3
TATATTATTTTTTGTGGTACATGTATTTTTACCTAA [XGTACX_site4348] | 6.6
TACATATTTACTATCACACACACGATATATATAAAT [CACACA_site1242] | 6.8
TACTTAAAAAAAAAAAAAATAAATATTATGTATTAT [CACACA_negctrl_site138] | 6.04
ATACGAAAAAATAGACGTACTATGAAATAATAATTT [XGTACX_site8387] | 6.66
